Experimental data published in PubChem BioAssay AID588855 (National Center for Advancing Translational Sciences (NCATS), 2011).
In all, about 410,000 compounds went through this assay and about 5,000 (1.2%) were called active. This list was built around the results that the source calls inconclusive (neither active nor inactive); the mix of calls is not that of the screen. Calls come from the whole dose curve; as a rule, active = well fitted inhibition curve with a large enough effect; inconclusive = small, poorly fitted or top-dose-only effect; inactive = no such curve, though single readings can be large or run the other way. A potency beside an inconclusive call is a rough fit, not a confirmed value.

Assay: qHTS for Inhibitors of TGF-b; note: nearly all actives have a fitted effect of over 65% in size
Details: HepG2 CAGA-GFP TGF-b/SMAD3 reporter, GFP fluorescence, 18 h, TGF-beta stimulated, 500 pg/mL final; series mostly up to 46.1 µM; activity, negative = inhibition: at the top concentration
Method in brief: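 HEPG2 CAGA-GFP cells (1000/well, DMEM with 1% FBS) were pre-incubated 2 h at 37 degrees C, given compound by pin tool, then stimulated with TGF-beta at 500 pg/mL final for 18 h before per-cell GFP fluorescence imaging.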
% is set by controls: 0 for no effect and ±100 for the full control effect; potency is the fitted concentration of half-maximal effect; tags give direction and shape of the fitted curve.

| SMILES | Potency | activity, negative = inhibition |
| --- | --- | --- |
| Cc1occc1-c1nnc(SCCCC(=O)c2ccc(F)cc2)n1C | inconclusive: 35.5 µM [inhibitor, partial curve, poor fit] |  |
| Cc1ccc(C)c(Cn2nnc3c(=O)[nH]c(C(=O)Nc4ccc(F)cc4)nc32)c1 | inconclusive: 10 µM [inhibitor, partial curve] |  |
| COc1cc(/C=C2\CC/C(=C\c3cc(OC)c(O)c(OC)c3)C2=O)cc(OC)c1O | inconclusive: 5.01 µM [inhibitor, partial curve, poor fit] |  |
| COC(=O)C1=CN(Cc2ccc(OC)c(OC)c2)C=C(C(=O)OC)C1c1cccc(OC)c1OC |  | inactive: 3.46% |
| CCOc1ccc(CN2CCN(C(=O)c3cccc4ccccc34)CC2)cc1 | inconclusive: 11.2 µM [inhibitor, partial curve] |  |
| C#CCOC(=O)c1ccccc1C(=O)n1nnc2ccccc21 | inconclusive: 17.8 µM [inhibitor, partial curve, poor fit] |  |
| CCCCNc1c(-c2ccc(OC)c(SC3CCCCC3)c2)nc2cc(C)ccn12 | active: 20 µM |  |
| CCC(c1nnnn1C(C)(C)CC)N(CCCO)Cc1cc2cc(C)cc(C)c2[nH]c1=O (stereo unspecified) |  | inactive: 6.04% |
| O=C(CSc1nnc(-c2cc3ccccc3cc2O)n1Cc1ccco1)N1CCc2ccccc2C1 | inconclusive: 7.08 µM [inhibitor, partial curve, poor fit] |  |
| COc1ccc(OC)c(NC(=S)NCCSc2ccc(C)cc2)c1 | inconclusive: 12.6 µM [inhibitor, partial curve] |  |
| CCOc1ccc(Cc2c(C)[nH]c3ccc(C(=O)O)cc3c2=S)cc1 |  | inactive: -0.377% |
| Cc1nnc(N2CCC(C(=O)N3CCCCC3)CC2)c2nn(-c3ccc(Cl)cc3)c(C)c12 | inconclusive: 11.2 µM [inhibitor, partial curve, poor fit] |  |
| COc1cccc(-c2cc(C(=O)N3CCN(S(=O)(=O)c4ccc(Br)cc4)CC3)[nH]n2)c1 | inconclusive: 3.55 µM [inhibitor, partial curve, poor fit] |  |
| COc1cc(OC)cc(C(=O)Nc2ncc3c(n2)CC(C)(C)CC3=O)c1 | inconclusive: 6.31 µM [inhibitor, single point] |  |
| CCOc1ccccc1C(=O)NCC(=O)NCCSc1ccc(Br)cc1 |  | inactive: -18.1% |
| O=C(c1cccc(Cl)c1)N1CCN(c2ccccn2)CC1 |  | inactive: -0.401% |
| CCN(CC)C(=O)CSC1=C(C#N)C(c2ccco2)C(C(=O)OCCOC)=C(C)N1 (stereo unspecified) | inconclusive: 22.4 µM [inhibitor, single point] |  |
| Cc1ccc(C)c(C(=O)C[n+]2cccc(Br)c2)c1 |  | inactive: 3.98% |
| COc1ccc(-c2c(-c3ccc(OC)c(C)c3O)n[nH]c2C)cc1 | active: 14.1 µM |  |
| CCn1c(SCC(=O)N(C)c2ccccc2)nc2c([nH]c3ccccc32)c1=O |  | inactive: 7.65% |
| Cc1cc2cc(CN(Cc3ccco3)C(=O)NCc3ccccc3)c(=O)[nH]c2cc1C | inconclusive: 35.5 µM [inhibitor, single point] |  |
| CCNC(=S)Nc1ccc(Cl)cc1Cl | inconclusive: 2.82 µM [inhibitor, full curve, poor fit] |  |

| SMILES | Potency | activity, negative = inhibition |
| --- | --- | --- |
| Cc1ccc(OCC(=O)Nc2nnc(S(=O)(=O)N3c4ccccc4CC3C)s2)cc1 (stereo unspecified) | inconclusive: 22.4 µM [inhibitor, single point] |  |
| Nc1ccc(S(=O)(=O)N2CCCC2)cc1Cl | inconclusive: 35.5 µM [inhibitor, single point] |  |
| Cc1ccc(NC(=O)c2nc(S(C)(=O)=O)ncc2N(Cc2ccco2)Cc2cccs2)c(C)c1 | inconclusive: 11.2 µM [inhibitor, partial curve] |  |
| CN(C)CCNC(=O)C12CC3(C)CC(C)(CC(C)(C3)C1)C2 |  | inactive: 0.199% |
| COC(=O)CCCC1=CC2=C(c3ccccc3)C(=O)C(C)(OC(=O)C3CCCC3)C(=O)C2=CN1C(CO)CO (stereo unspecified) | inconclusive: 6.31 µM [inhibitor, single point] |  |
| O=C(c1ccccc1)c1ccc(C(=O)N2CCN(c3ccc(F)cc3)CC2)o1 | inconclusive: 25.1 µM [inhibitor, single point] |  |
| Cc1cccc(N(C(=O)Cc2cccs2)C(C(=O)NC2CCCC2)c2ccncc2)c1 (stereo unspecified) |  | inactive: 0.929% |
| CSc1ccc(COC(=O)CCS(=O)(=O)c2ccc(C)cc2)cc1 |  | inactive: -9.18% |
| Cc1c(C(c2cccc(O)c2)c2c(C)n(C)n(-c3ccccc3)c2=O)c(=O)n(-c2ccccc2)n1C | inconclusive: 0.708 µM [inhibitor, full curve, poor fit] |  |
| O=C(CCCc1cccs1)Nc1ccc2c(c1)OCO2 |  | inactive: 2.01% |
| CC(=O)O[C@H]1CC[C@@]2(C)C(=CC[C@H]3[C@@H]4CC[C@H](C(C)=O)[C@@]4(C)CC[C@@H]32)C1 |  | inactive: 3.52% |
| Cc1ccc(-c2nnc3ccc(SCC(=O)N4CCc5ccccc54)nn23)cc1 |  | inactive: 5.53% |
| COC(=O)c1cc(NS(=O)(=O)c2ccc(N3CCCCC3)c([N+](=O)[O-])c2)cc(C(=O)OC)c1 | inconclusive: 25.1 µM [inhibitor, single point] |  |
| Cc1ccc(CNC(=O)CC(C)S(=O)(=O)c2ccc3c(c2)NC(=O)C(C)S3)cc1 (stereo unspecified) | inconclusive: 14.1 µM [inhibitor, partial curve] |  |
| O=S(=O)(NCCNc1ncc(C(F)(F)F)cc1Cl)C(F)(F)F | inconclusive: 35.5 µM [inhibitor, single point] |  |
| COc1ccc([C@@H]2[C@@H]3C(=O)N(C(C)(C)C)C(=O)[C@@H]3[C@]3(C)C(=O)N(c4ccc(C(F)(F)F)cc4)C(=O)N23)cc1 | inconclusive: 0.112 µM [inhibitor, full curve, poor fit] |  |
| COc1ccc(/C=C/C(=O)Nc2ccc(S(=O)(=O)Nc3onc(C)c3C)cc2)cc1OC | inconclusive: 12.6 µM [inhibitor, single point] |  |
| CN(C)C1=NCCN1CCc1cccc(F)c1 |  | inactive: 17% |
| Cc1ccc(/C=C2\CCCC3=C2NC(=S)NC3c2ccc(C)cc2)cc1 (stereo unspecified) | inconclusive: 11.2 µM [inhibitor, partial curve, poor fit] |  |
| Nc1ncnc(Nc2ccccc2)n1 |  | inactive: -16% |
| CC1CCCN(CCCNC(=O)c2coc3nc4ccccc4nc23)C1 (stereo unspecified) | inconclusive: 3.55 µM [inhibitor, full curve, poor fit] |  |
| Nn1cnnc1N/N=C/c1ccc(F)cc1 | inconclusive: 22.4 µM [inhibitor, single point] |  |

| SMILES | Potency | activity, negative = inhibition |
| --- | --- | --- |
| Cc1cc(N2CCN(C)CC2)nc2ccc(NC(=O)CCC(=O)NCCC3=CCCCC3)cc12 |  | inactive: 9.02% |
| CC(C)Cn1c2c(c(O)c(C(=O)Nc3ncccc3O)c1=O)CCCC2 | inconclusive: 35.5 µM [inhibitor, single point] |  |
| O=C(N/N=C/c1ccc2c(c1)OCO2)c1cc(-c2ccccc2Cl)nc2ccccc12 | inconclusive: 3.55 µM [inhibitor, full curve] |  |
| NC(c1csc(Nc2ccc(C(=O)NCCCO)cn2)n1)c1ccccc1Cl (stereo unspecified) |  | inactive: -3.36% |
| Cc1cc(-c2ccc(C)c(S(=O)(=O)NC3CCCCC3)c2)on1 | inconclusive: 11.2 µM [inhibitor, single point] |  |
| CCOc1ccc(-n2ccnc2SCC(=O)Nc2nc3ccc(C)cc3s2)cc1 |  | inactive: 2.14% |
| O=C1C2C3C=CC(C3)C2C(=O)N1c1ccc(N2CCN(c3ccccn3)CC2)c([N+](=O)[O-])c1 (stereo unspecified) |  | inactive: -20% |
| O=c1cc(CS(=O)(=O)c2ccccc2)nc(-c2ccncc2)[nH]1 | inconclusive: 0.112 µM [inhibitor, full curve, poor fit] |  |
| Cc1noc(C)c1COc1ccccc1C(=O)N1CCN(c2cccc(Cl)c2)CC1 | inconclusive: 15.8 µM [inhibitor, single point] |  |
| Cc1ccc(CNC(=O)C2CCN(S(=O)(=O)c3ccc4[nH]c(=O)ccc4c3)CC2)cc1 |  | inactive: 16% |
| CCc1ccc(-n2c(C)cc(/C=N/NC(=O)c3ccncc3)c2C)cc1 | inconclusive: 7.94 µM [inhibitor, partial curve, poor fit] |  |
| O=C(COC(=O)Cc1c(F)cccc1Cl)Nc1nnc(-c2ccccc2)o1 | inconclusive: 35.5 µM [inhibitor, single point] |  |
| COc1ccccc1N1CCN(C(=O)c2ccc(NC(C)=O)cc2)CC1 | inconclusive: 6.31 µM [inhibitor, single point] |  |
| COc1ccccc1C1CC(c2ccco2)=NN1c1ccccc1 (stereo unspecified) |  | inactive: -28% |
| CCOc1ccc(NC(=O)Cn2c(=O)n(-c3ccccc3)c(=O)c3ccc(C(=O)NCc4ccc5c(c4)OCO5)cc32)cc1 | inconclusive: 11.2 µM [inhibitor, partial curve, poor fit] |  |
| NC(c1csc(Nc2cc(NCc3ccco3)ncn2)n1)c1ccccc1Cl (stereo unspecified) | inconclusive: 35.5 µM [inhibitor, single point] |  |
| COc1ccc(-c2cc(C(=O)O)c3sc(N4CCCCC4)nc3n2)cc1OC | inconclusive: 2.51 µM [inhibitor, full curve, poor fit] |  |
| CONC(=O)Nc1ccccc1[N+](=O)[O-] | inconclusive: 0.501 µM [inhibitor, full curve, poor fit] |  |
| O=C(COC(=O)c1nc(Cl)c(Cl)c(Cl)c1Cl)NCc1ccccc1 | inconclusive: 11.2 µM [inhibitor, partial curve, poor fit] |  |
| Cc1cccc(N2CCN(C(=O)c3cccc(N4CCCC4=O)c3)C(C)C2)c1 (stereo unspecified) |  | inactive: 17.5% |
| COc1ccc(CNC(=O)CN(Cc2ccc(Cl)cc2)S(=O)(=O)c2ccccc2)cc1 | inconclusive: 12.6 µM [inhibitor, partial curve, poor fit] |  |
| CC(C)n1c(SCC(=O)Nc2ccc(F)cc2)nnc1C1CC1 |  | inactive: 0% |
